The other results are listed elsewhere or left out. At the low end of the ranking, values are background and their order means little.

This test has as its target SIX1 homeodomain (reference allele) (UniProt Q15475). The test can be described thus: universal protein binding microarray. The note with it: Universal all-10-mer PBM (8x60K, AMADID 030236), 300 nM GST-tagged protein, Alexa Fluor 488 anti-GST; buffer, salt, pH and temperature not stated; high values mean tight binding; most listed sequences are background and not binding sites; double strand, one strand shown.
Regarding AATTACGA, the binding signal was -0.0294 E-score. Take GACATCAA: the binding signal is -0.17 E-score. Take CGAACAAA: the binding signal was found to be 0.00016 E-score. Then AATTTGTC, with -0.134 E-score. Then CAATGAAG, with -0.312 E-score; and GATGCTAC, with 0.0971 E-score. As for CCGATGGA, the binding signal is -0.0177 E-score. As for GGATACAC, the binding signal stood at 0.405 E-score. Then TCCCTTCA, with 0.074 E-score. Then GGGACCCA, with -0.205 E-score; and GAAGCCTA, with 0.11 E-score; and ATGTTCAC, with -0.0575 E-score. For AATGAGAG the value was 0.00217 E-score; for CAACGGCG, -0.239 E-score; for AATTCGTG, -0.109 E-score. Consider AAGTTTGC, for which the binding signal is -0.163 E-score. For the sequence GAAATTCA, the binding signal was -0.244 E-score.

Consider TCGTATCA, for which the binding signal was 0.45 E-score. For TTGTCAAA the value was -0.153 E-score. Turning to CACGGGCA, the binding signal is -0.0129 E-score. For CCAGATGA the value was 0.203 E-score; for ATGTACCA, 0.0538 E-score; for ACTAGTAG, -0.0371 E-score. As for AGCATGCT, the binding signal was -0.313 E-score. Then GCATGGCC, with -0.187 E-score. For CAACTAAA the value was -0.0157 E-score.

Turning to ATGTGTCG, the binding signal is -0.0766 E-score. Regarding GTGTGCAA, the binding signal is -0.13 E-score. On to AGTGTATG, for which the binding signal was 0.0378 E-score. On to CAGCACGC, for which the binding signal is -0.183 E-score. Then ATCCTCCC, with 0.304 E-score; and AGGAGAGC, with -0.0652 E-score.

For the sequence CTCACCGA, the binding signal worked out at 0.0417 E-score. For ACCCCTCC, the binding signal was 0.142 E-score.

Take GGCACCCA: the binding signal was -0.0563 E-score. Regarding AATAGGAT, the binding signal turned out to be 0.332 E-score. Regarding CAACTAGA, the binding signal was 0.00189 E-score.

As for AAAGGATG, the binding signal is -0.0408 E-score. For the sequence ATCGAGAA, the binding signal was 0.182 E-score.

On to ACGTGGCG, for which the binding signal is -0.161 E-score. For AAGTAGGG the value was -0.0184 E-score; for AGAAAAGC, -0.326 E-score.

As for CCGTACGC, the binding signal is -0.166 E-score. For the sequence AGACCTGG, the binding signal is -0.093 E-score. For GTTCGGTA the value was -0.0422 E-score; for CTTCCCCC, -0.071 E-score.

Consider CCCCGGAA, for which the binding signal is -0.138 E-score. In the case of TGGACAAA, the binding signal is -0.147 E-score.

GCGAACAA: the binding signal was -0.0258 E-score. For AACAGCGT, the binding signal was -0.125 E-score. Take CACGCACG: the binding signal is -0.0944 E-score. Then CGGTGAAC, with 0.0225 E-score; and GGGTGTCA, with 0.47 E-score. Then CTGTCCAA, with -0.112 E-score; and AGAGAGGC, with -0.111 E-score.

Turning to ATCACACG, the binding signal came out at 0.256 E-score. As to TATCGTAA, the binding signal is 0.296 E-score.

For ACCTATAT, the binding signal stood at 0.195 E-score. As to CGGCACCA, the binding signal is -0.0307 E-score. Then AGCCGAGC, with -0.178 E-score; and TCATCAGA, with -0.0287 E-score. For ACGCTTAG the value was -0.101 E-score.

Turning to AGCGGCTA, the binding signal was -0.0681 E-score. For the sequence ATCCCAGA, the binding signal amounted to 0.227 E-score. Take CACGAGCG: the binding signal was -0.234 E-score. Take GACCCTGC: the binding signal was -0.042 E-score. Then GAAGAGAA, with -0.0939 E-score. Turning to GCCTCGCC, the binding signal was -0.0248 E-score. As for ACGGAGAC, the binding signal is 0.127 E-score.

On to CTTAATAA, for which the binding signal is -0.106 E-score. With TAGTGGAA, the binding signal is -0.134 E-score. Turning to ACCTGAAA, the binding signal was -0.027 E-score. Consider AAAACCAT, for which the binding signal turned out to be 0.103 E-score.

As to AGATCGTA, the binding signal turned out to be 0.237 E-score.

Take CAGTATAG: the binding signal stood at 0.178 E-score. In the case of CACTCCCC, the binding signal was -0.0151 E-score. Take CTCAAGTA: the binding signal was determined as 0.0414 E-score.

Consider CCGCGCGC, for which the binding signal was -0.155 E-score. For ACTAAAGG, the binding signal is -0.134 E-score. On to ATCGGGGC, for which the binding signal stood at 0.198 E-score. Then AGTGAGGA, with -0.0654 E-score; and CTGGCCAC, with -0.176 E-score. Then GTGTAGCA, with -0.191 E-score; and CGTCGGCC, with -0.264 E-score; and ACTCGATG, with -0.0167 E-score. For the sequence TATGCGGA, the binding signal stood at 0.284 E-score. Then TACTTGAA, with 0.0425 E-score; and AGGAACCT, with -0.0327 E-score; and AGGGCCAT, with -0.142 E-score. Then ATTAATTG, with 0.0139 E-score; and ATAAGTAC, with -0.0335 E-score.

Consider AATAAGGG, for which the binding signal was -0.104 E-score. Then AATCTGTG, with 0.0621 E-score; and AAAGTCTA, with -0.196 E-score. GGACTGCA: the binding signal is -0.254 E-score. For AGGAAAGG the value was -0.0806 E-score; for ATATGTGC, 0.241 E-score; for ATCTCCGG, 0.229 E-score. For CGTTGCGC the value was -0.246 E-score.

For AACGGACT, the binding signal is -0.33 E-score.

As for GCGGACCC, the binding signal is -0.0794 E-score. Then CAGTATAA, with 0.117 E-score; and CACTGCCG, with 0.0986 E-score; and ATCCGGAT, with 0.446 E-score. Turning to GTAGCGCA, the binding signal is -0.126 E-score. In the case of CGGAACGC, the binding signal was -0.0738 E-score. For CAGCAGAA, the binding signal was -0.145 E-score. Regarding CAAGTGGA, the binding signal is 0.141 E-score. Take CAATTAAC: the binding signal is -0.119 E-score.

On to GCATACTA, for which the binding signal turned out to be 0.22 E-score. Consider CCCGCCGA, for which the binding signal stood at 0.0271 E-score.

Turning to TAGTCGCA, the binding signal is -0.0507 E-score. Then CGGCCGAG, with -0.112 E-score; and CACACCTG, with 0.0264 E-score; and AGTATGCA, with -0.0969 E-score.

Consider GTTCCAGA, for which the binding signal was 0.0177 E-score. As to ATTTAGTG, the binding signal stood at 0.143 E-score. Then CGATAGGC, with 0.175 E-score. Turning to CCTGTGAG, the binding signal is -0.0112 E-score. Then CCACCACC, with -0.0531 E-score.

As to TATAACAA, the binding signal is 0.224 E-score. Then CGCCACCG, with -0.0881 E-score; and CTCGAGGA, with -0.0713 E-score; and AGAACTGA, with -0.0616 E-score. Turning to ATAAAGAT, the binding signal was 0.0956 E-score. Regarding AATTGAGG, the binding signal was -0.152 E-score. For the sequence ACAATCTA, the binding signal worked out at 0.02 E-score. For ACAGAGGC the value was -0.16 E-score; for TAACAATA, 0.0577 E-score; for CGTCGTAA, -0.166 E-score. Then AGGTCGCG, with -0.17 E-score. As to AAATCAGC, the binding signal is -0.224 E-score. Then ACCCAAGG, with 0.0737 E-score. For CGAAGCCA the value was -0.164 E-score; for ATTACCTC, -0.147 E-score; for CAGATGCC, -0.0756 E-score. For AAGAGCGG the value was -0.0725 E-score. For GCAGCCGC, the binding signal is -0.0696 E-score. For ACGAACGA, the binding signal was -0.117 E-score.

Turning to GCGAACGC, the binding signal turned out to be 0.024 E-score. Take CAAAGGTC: the binding signal is -0.223 E-score. With AACCATTA, the binding signal is -0.106 E-score. In the case of ACCCAATC, the binding signal came to 0.081 E-score. For GCCATTAC, the binding signal is -0.149 E-score.

CCACACGC: the binding signal was determined as 0.141 E-score. AAAGCAGT: the binding signal is -0.017 E-score. In the case of ACCTTATA, the binding signal was found to be 0.17 E-score. Regarding CCTTTTGA, the binding signal was -0.0432 E-score. Take CGAATACA: the binding signal came to 0.151 E-score. With TTACCAAA, the binding signal was -0.0282 E-score. Consider CTTATGAC, for which the binding signal was -0.154 E-score. In the case of ACCTTGGC, the binding signal was -0.093 E-score. Then AAATTGAC, with -0.0828 E-score; and AAGTCCTG, with -0.109 E-score. Then CAACCTGC, with -0.215 E-score; and CGTATGCA, with 0.0166 E-score.

For the sequence CTCTCTAC, the binding signal was -0.0321 E-score. For CTTCTTTA the value was -0.0212 E-score; for GAAGGCTC, 0.00269 E-score. For CTTGCATC the value was 0.0348 E-score; for AGCAGCGA, -0.113 E-score.

As for GGCAACTA, the binding signal was -0.3 E-score. For GTGATTCA, the binding signal was -0.116 E-score. For CGCGTGGA the value was -0.107 E-score; for GGCGACCA, -0.152 E-score. Turning to AGATACAG, the binding signal was 0.246 E-score. Then ATGTTGTC, with 0.0683 E-score; and ACTGGCCA, with -0.193 E-score. With AATACGGG, the binding signal was 0.259 E-score.

On to CTGTAACA, for which the binding signal was -0.202 E-score. For the sequence GGGGCCAA, the binding signal is -0.184 E-score. Regarding ATAAGCGC, the binding signal was -0.0863 E-score.

(Values after paper PMC10668032.)
